# Laboratory results from the supplement of paper PMC4604168 (melanoma cell lines).
# The list shows a part of the results. Most values come without repeats; read them as rough.
# Tested on: MZ2-MEL
# Test: cell count relative to DMSO control; melanoma cells; higher = more viable cells
# Details: library dose: low library concentration; 72 h
# 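Further: cell number obtained by counting DAPI-stained nuclei in high-throughput microscope images with image analysis software, screen run in 1,536-well plates.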
row,SMILES,cell count [%]
1,"Cc1cn(-c2cc(NC(=O)c3ccc(C)c(Nc4nccc(-c5cccnc5)n4)c3)cc(C(F)(F)F)c2)cn1 [nilotinib] + NCC(=O)Nc1ccc(-n2nc(C(F)(F)F)cc2-c2ccc3c(ccc4ccccc43)c2)cc1 [OSU03012] (first compound 0.2 µM, partner dose 1 µM)",88.4
2,"Cc1cn(-c2cc(NC(=O)c3ccc(C)c(Nc4nccc(-c5cccnc5)n4)c3)cc(C(F)(F)F)c2)cn1 [nilotinib] + CO[C@@H]1[C@H](N(C)C(=O)c2ccccc2)C[C@H]2O[C@]1(C)n1c3ccccc3c3c4c(c5c6ccccc6n2c5c31)C(=O)NC4 [Midostaurin] (first compound 0.2 µM, partner dose 0.08 µM)",88.6
3,"Cc1cc(Nc2cc(N3CCN(C)CC3)nc(/C=C/c3ccccc3)n2)n[nH]1 + COC(=O)c1sccc1S(=O)(=O)Nc1ccc(Nc2ccccc2)cc1OC [GSK0660] (first compound 0.04 µM, partner dose 1 µM)",104
4,"COc1ccc(C2=N[C@@H](c3ccc(Cl)cc3)[C@@H](c3ccc(Cl)cc3)N2C(=O)N2CCNC(=O)C2)c(OC(C)C)c1 [Nutlin-3] + CC(C)CCN1c2nc(Nc3cc(F)c(O)c(F)c3)ncc2N(C)C(=O)C1C [BID1870] (first compound 0.1 µM, partner dose 0.2 µM)",103
5,"COc1ccc(C2=N[C@@H](c3ccc(Cl)cc3)[C@@H](c3ccc(Cl)cc3)N2C(=O)N2CCNC(=O)C2)c(OC(C)C)c1 [Nutlin-3] + COc1ccc2c(c1)CCC1C2CCC2(C)C(NCCCCCCN3C(=O)C=CC3=O)CCC12 [U73122] (first compound 0.1 µM, partner dose 0.4 µM)",99.4
6,"Cc1cc(Nc2cc(N3CCN(C)CC3)nc(/C=C/c3ccccc3)n2)n[nH]1 + Oc1nc(-c2ccc(C(F)(F)F)cc2)nc2c1CSCC2 [XAV939] (first compound 0.04 µM, partner dose 2 µM)",101
7,"COc1ccc(C2=N[C@@H](c3ccc(Cl)cc3)[C@@H](c3ccc(Cl)cc3)N2C(=O)N2CCNC(=O)C2)c(OC(C)C)c1 [Nutlin-3] + CCc1ccc(CCOc2ccc(CC3SC(=O)NC3=O)cc2)nc1 [pioglitazone] (first compound 0.1 µM, partner dose 2 µM)",97.4
8,"COc1ccc(C2=N[C@@H](c3ccc(Cl)cc3)[C@@H](c3ccc(Cl)cc3)N2C(=O)N2CCNC(=O)C2)c(OC(C)C)c1 [Nutlin-3] + O=C(CCCCCCC(=O)Nc1ccccc1)NO [vorinostat] (first compound 0.1 µM, partner dose 0.08 µM)",97.2
9,"Cn1c(=O)n(-c2ccc(C(C)(C)C#N)cc2)c2c3cc(-c4cnc5ccccc5c4)ccc3ncc21 + Cn1cncc1[C@@](N)(c1ccc(Cl)cc1)c1ccc2c(c1)c(-c1cccc(Cl)c1)cc(=O)n2C [tipifarnib] (first compound 0.004 µM, partner dose 0.01 µM)",94

# Tested on: MeWo
# Test: as above
# Details: library dose: low library concentration; 72 h
row,SMILES,cell count [%]
1,"COc1ccc(C2=N[C@@H](c3ccc(Cl)cc3)[C@@H](c3ccc(Cl)cc3)N2C(=O)N2CCNC(=O)C2)c(OC(C)C)c1 [Nutlin-3] + c1cc(-c2cnn3cc(-c4ccc(OCCN5CCCCC5)cc4)cnc23)ccn1 [Dorsomorphin] (first compound 0.1 µM, partner dose 0.4 µM)",90.5
2,"Cn1c(=O)n(-c2ccc(C(C)(C)C#N)cc2)c2c3cc(-c4cnc5ccccc5c4)ccc3ncc21 + COc1cc(N2CCC(N3CCN(C)CC3)CC2)ccc1Nc1ncc(Cl)c(Nc2ccccc2S(=O)(=O)C(C)C)n1 [NVP-TAE684] (first compound 0.004 µM, partner dose 0.08 µM)",59.6
3,"COc1ccc(C2=N[C@@H](c3ccc(Cl)cc3)[C@@H](c3ccc(Cl)cc3)N2C(=O)N2CCNC(=O)C2)c(OC(C)C)c1 [Nutlin-3] + COc1cc2c(Oc3ccc4[nH]c(C)cc4c3F)ncnc2cc1OCCCN1CCCC1 [cediranib] (first compound 0.1 µM, partner dose 0.4 µM)",99
4,"CC(C)C[C@H](NC(=O)[C@H](Cc1ccccc1)NC(=O)c1cnccn1)B(O)O [Bortezomib] + NC(=O)Nc1cc(-c2cccc(F)c2)sc1C(=O)N[C@H]1CCCNC1 [AZD7762] (first compound 0.001 µM, partner dose 0.02 µM)",97.3
5,"CC(C)C[C@H](NC(=O)[C@H](Cc1ccccc1)NC(=O)c1cnccn1)B(O)O [Bortezomib] + O=C(O)c1ccc(-c2c[nH]c3ncc(-c4ccccc4)cc23)cc1C1CCCC1 [GSK650394] (first compound 0.001 µM, partner dose 0.16 µM)",89.8
6,"COc1ccc(C2=N[C@@H](c3ccc(Cl)cc3)[C@@H](c3ccc(Cl)cc3)N2C(=O)N2CCNC(=O)C2)c(OC(C)C)c1 [Nutlin-3] + O=C1NC(=O)/C(=C/c2ccc(-c3ccc(F)cc3O)o2)S1 [AS252424] (first compound 0.1 µM, partner dose 1 µM)",76.1
7,"Cn1c(=O)n(-c2ccc(C(C)(C)C#N)cc2)c2c3cc(-c4cnc5ccccc5c4)ccc3ncc21 + NCC(=O)Nc1ccc(-n2nc(C(F)(F)F)cc2-c2ccc3c(ccc4ccccc43)c2)cc1 [OSU03012] (first compound 0.004 µM, partner dose 1 µM)",61.3
8,"CC(C)C[C@H](NC(=O)[C@H](Cc1ccccc1)NC(=O)c1cnccn1)B(O)O [Bortezomib] + O=C(Nc1ccccc1)c1cc([N+](=O)[O-])ccc1Cl [GW9662] (first compound 0.001 µM, partner dose 2 µM)",79.4
9,"COc1ccc(C2=N[C@@H](c3ccc(Cl)cc3)[C@@H](c3ccc(Cl)cc3)N2C(=O)N2CCNC(=O)C2)c(OC(C)C)c1 [Nutlin-3] + Cn1cc(/C=C2\C(=O)Nc3cccnc32)c2ccccc21 [GW441756] (first compound 0.1 µM, partner dose 0.4 µM)",102
10,"Cn1c(=O)n(-c2ccc(C(C)(C)C#N)cc2)c2c3cc(-c4cnc5ccccc5c4)ccc3ncc21 + OCCn1cc(-c2cnc3nnn(Cc4ccc5ncccc5c4)c3n2)cn1 [PF04217903] (first compound 0.004 µM, partner dose 1 µM)",90.6
11,"Cc1cn(-c2cc(NC(=O)c3ccc(C)c(Nc4nccc(-c5cccnc5)n4)c3)cc(C(F)(F)F)c2)cn1 [nilotinib] + Oc1nc(-c2ccc(C(F)(F)F)cc2)nc2c1CSCC2 [XAV939] (first compound 0.2 µM, partner dose 2 µM)",102
12,"COc1ccc(C2=N[C@@H](c3ccc(Cl)cc3)[C@@H](c3ccc(Cl)cc3)N2C(=O)N2CCNC(=O)C2)c(OC(C)C)c1 [Nutlin-3] + CO[C@@H]1[C@H](N(C)C(=O)c2ccccc2)C[C@H]2O[C@]1(C)n1c3ccccc3c3c4c(c5c6ccccc6n2c5c31)C(=O)NC4 [Midostaurin] (first compound 0.1 µM, partner dose 0.08 µM)",92.3
13,"COc1ccc(C2=N[C@@H](c3ccc(Cl)cc3)[C@@H](c3ccc(Cl)cc3)N2C(=O)N2CCNC(=O)C2)c(OC(C)C)c1 [Nutlin-3] + C[C@@H]1CCN(C(=O)CC#N)C[C@@H]1N(C)c1ncnc2[nH]ccc12 [CP690550] (first compound 0.1 µM, partner dose 1 µM)",93.6
14,"Cc1cn(-c2cc(NC(=O)c3ccc(C)c(Nc4nccc(-c5cccnc5)n4)c3)cc(C(F)(F)F)c2)cn1 [nilotinib] + Cn1cncc1[C@@](N)(c1ccc(Cl)cc1)c1ccc2c(c1)c(-c1cccc(Cl)c1)cc(=O)n2C [tipifarnib] (first compound 0.2 µM, partner dose 0.01 µM)",91.9
15,"CC(C)C[C@H](NC(=O)[C@H](Cc1ccccc1)NC(=O)c1cnccn1)B(O)O [Bortezomib] + CC(C)CCN1c2nc(Nc3cc(F)c(O)c(F)c3)ncc2N(C)C(=O)C1C [BID1870] (first compound 0.001 µM, partner dose 0.2 µM)",85.8
16,"Cc1cn(-c2cc(NC(=O)c3ccc(C)c(Nc4nccc(-c5cccnc5)n4)c3)cc(C(F)(F)F)c2)cn1 [nilotinib] + O=C(CCCCCCC(=O)Nc1ccccc1)NO [vorinostat] (first compound 0.2 µM, partner dose 0.08 µM)",98.7
17,"Cn1c(=O)n(-c2ccc(C(C)(C)C#N)cc2)c2c3cc(-c4cnc5ccccc5c4)ccc3ncc21 + O=C1NC(=O)/C(=C/c2ccc(-c3ccc(F)cc3O)o2)S1 [AS252424] (first compound 0.004 µM, partner dose 1 µM)",96.4
18,"CC(C)C[C@H](NC(=O)[C@H](Cc1ccccc1)NC(=O)c1cnccn1)B(O)O [Bortezomib] + COc1ccc(-c2ccc3c(N4CCOCC4)nc(N4C[C@@H](C)O[C@@H](C)C4)nc3n2)cc1CO [KU0063794] (first compound 0.001 µM, partner dose 0.02 µM)",89.1
19,"Cc1cc(Nc2cc(N3CCN(C)CC3)nc(/C=C/c3ccccc3)n2)n[nH]1 + CC(C)(C)c1cnc(CSc2cnc(NC(=O)C3CCNCC3)s2)o1 [SNS-032] (first compound 0.04 µM, partner dose 0.01 µM)",90.8
20,"Cc1cc(Nc2cc(N3CCN(C)CC3)nc(/C=C/c3ccccc3)n2)n[nH]1 + O=C(O)c1ccc(-c2c[nH]c3ncc(-c4ccccc4)cc23)cc1C1CCCC1 [GSK650394] (first compound 0.04 µM, partner dose 0.16 µM)",79.8
